# Source: a collection of fitness landscapes (doi:10.1126/science.1257360)
# Some of the results follow.
# B1: PhoQ; a variant is named by its letters at X, in order, P23837 (parent)
# chain: MKKLLRLFFPLSLRVRFLLATAAVVLVLSLAYGMVALIGYSVSFDKTTFRLLRGESNLFYTLAKWENNKLHVELPENIDKQSPTMTLIYDENGQLLWAQRDVPWLMKMIQPDWLKSNGFHEIEADVNDTSLLLSGDHSIQQQLQEVREDDDDAEMTHSVAVNVYPATSRMPKLTIVVVDTIPVELKSSYMVWSWFIYVLSANLLLVIPLLWVAAWWSLRPIEALAKEVRELEEHNRELLNPATTRELTSLVRNLNRLLKSERERYDKYRTTLTDLTHSLKTPLXXLQXXLRSLRSEKMSVSDAEPVMLEQISRISQQIGYYLHRASMRGGTLLSRELHPVAPLLDNLTSALNKVYQRKGVNISLDISPEISFVGEQNDFVEVMGNVLDNACKYCLEFVEISARQTDEHLYIVVEDDGPGIPLSKREVIFDRGQRVDTLRPGQGVGLAVAREITEQYEGKIVAGESMLGGARMEVIFGRQHSAPKDE
# Variants of: B1
# Test: enrichment ratio after two sorts for PhoP signalling (ratio (wild type AVST 3.29)); higher = more functional
# Conditions: with PhoP (E. coli)
row,Variant,enrichment ratio
1,WMFH,≤ 0.25
2,ANVT,15
3,MQKG,≤ 0.25
4,NYLL,≤ 0.25
5,RNKN,≤ 0.25
6,TGAQ,2.72
7,YWCQ,≤ 0.25
8,LCNR,≤ 0.25
9,RDTE,≤ 0.25
10,LSYR,≤ 0.25
11,LGTP,≤ 0.25
12,AEVM,46.8
13,PIFQ,≤ 0.25
14,LIMV,≤ 0.25
15,KHIM,≤ 0.25
16,QASM,8.25
17,PSQD,≤ 0.25
18,PDQV,≤ 0.25
19,NAYG,≤ 0.25
20,PQLT,≤ 0.25
21,YRRC,≤ 0.25
22,ALTY,3.1
23,HCAK,≤ 0.25
24,YWTS,≤ 0.25

row,Variant,enrichment ratio
1,TCGL,13.5
2,EACC,≤ 0.25
3,HNGT,≤ 0.25
4,DIDT,≤ 0.25
5,LFHG,≤ 0.25
6,KNHY,≤ 0.25
7,DYKT,≤ 0.25
8,IIKC,≤ 0.25
9,AFRG,≤ 0.25
10,EHLK,≤ 0.25
11,HFTY,≤ 0.25
12,PHSP,≤ 0.25
13,VPVP,≤ 0.25
14,KLTD,≤ 0.25
15,WCFH,≤ 0.25
16,YQPY,≤ 0.25
17,DAYP,≤ 0.25
18,YCVP,≤ 0.25
19,YHFN,≤ 0.25
20,FYYW,≤ 0.25
21,DSMI,≤ 0.25
22,TPWW,≤ 0.25
23,HELE,≤ 0.25
24,YMCA,≤ 0.25

row,Variant,enrichment ratio
1,GRIF,≤ 0.25
2,AFHS,≤ 0.25
3,IWML,≤ 0.25
4,PYCR,≤ 0.25
5,QAHK,≤ 0.25
6,NCRY,≤ 0.25
7,FVDN,≤ 0.25
8,HIRP,≤ 0.25
9,AILT,6.15
10,DWHR,≤ 0.25
11,NKRR,≤ 0.25
12,PDHT,≤ 0.25
13,VQQV,≤ 0.25
14,MPWK,≤ 0.25
15,DADM,≤ 0.25
16,VPLK,≤ 0.25
17,GYKY,≤ 0.25
18,SAAR,≤ 0.25
19,GSWQ,≤ 0.25
20,EDSY,≤ 0.25
21,NCNR,≤ 0.25
22,MHSF,≤ 0.25
23,RTNH,≤ 0.25
24,MFLA,≤ 0.25

row,Variant,enrichment ratio
1,YGII,≤ 0.25
2,FTWD,2.02
3,PDHL,≤ 0.25
4,HPWM,≤ 0.25
5,GRHK,≤ 0.25
6,KPRK,≤ 0.25
7,LDVF,≤ 0.25
8,FCTM,≤ 0.25
9,GSYL,≤ 0.25
10,RSHE,≤ 0.25
11,SYQA,≤ 0.25
12,VICW,≤ 0.25
13,YPMW,≤ 0.25
14,DCLL,≤ 0.25
15,RCDD,≤ 0.25
16,IWIY,≤ 0.25
17,KLNP,≤ 0.25
18,LGNM,≤ 0.25
19,ATKV,≤ 0.25
20,FPIV,≤ 0.25
21,ELCA,≤ 0.25
22,TGYF,1.56
23,AQPD,≤ 0.25
24,LPDP,≤ 0.25

row,Variant,enrichment ratio
1,YMGC,0.731
2,NGFV,≤ 0.25
3,AQMK,≤ 0.25
4,MLAR,≤ 0.25
5,FYVY,≤ 0.25
6,GMCT,≤ 0.25
7,RVNP,≤ 0.25
8,LKLV,≤ 0.25
9,YNKR,≤ 0.25
10,IVHA,≤ 0.25
11,KLYN,≤ 0.25
12,LQNR,≤ 0.25
13,SAFT,≤ 0.25
14,DSCF,≤ 0.25
15,LRFF,≤ 0.25
16,KWSS,≤ 0.25
17,MNPC,≤ 0.25
18,IFMY,≤ 0.25
19,IDIT,≤ 0.25
20,NFHK,≤ 0.25
21,IAHM,≤ 0.25
22,ICAV,≤ 0.25
23,WACM,≤ 0.25
24,SNQH,2.64

row,Variant,enrichment ratio
1,QTMT,≤ 0.25
2,PTAC,≤ 0.25
3,YPLP,≤ 0.25
4,RCLA,≤ 0.25
5,SVHG,≤ 0.25
6,SQRK,≤ 0.25
7,LWYA,≤ 0.25
8,AIML,21.2
9,QTSE,≤ 0.25
10,MNKT,≤ 0.25
11,EFMW,≤ 0.25
12,KTPM,≤ 0.25
13,FFQM,≤ 0.25
14,TFAQ,2.37
15,CVPH,≤ 0.25
16,NDYD,≤ 0.25
17,GVWF,≤ 0.25
18,THGD,≤ 0.25
19,ADCI,≤ 0.25
20,RWIP,≤ 0.25
21,SWTH,≤ 0.25
22,SKSH,0.51
23,PTGW,≤ 0.25
24,ITDM,≤ 0.25

row,Variant,enrichment ratio
1,QQIF,≤ 0.25
2,EYAY,≤ 0.25
3,TSDL,4.55
4,SKCI,16.6
5,IVWL,≤ 0.25
6,NTGT,≤ 0.25
7,TFEP,≤ 0.25
8,GLPP,≤ 0.25
9,CTLS,≤ 0.25
10,KELS,≤ 0.25
11,PNYT,≤ 0.25
12,SRQW,≤ 0.25
13,ARNL,≤ 0.25
14,VMRL,≤ 0.25
15,WSCM,≤ 0.25
16,VFQN,≤ 0.25
17,FEVY,≤ 0.25
18,GHFI,≤ 0.25
19,KAIN,≤ 0.25
20,MTNL,≤ 0.25
21,IVFP,≤ 0.25
22,AHYN,≤ 0.25
23,KTEI,≤ 0.25
24,TIRW,≤ 0.25

row,Variant,enrichment ratio
1,SKNL,≤ 0.25
2,RMTE,≤ 0.25
3,SWTC,≤ 0.25
4,IIWI,≤ 0.25
5,ERWV,≤ 0.25
6,YMFD,≤ 0.25
7,GGPF,≤ 0.25
8,ALKS,≤ 0.25
9,RRMQ,≤ 0.25
10,MLKS,≤ 0.25
11,DMFE,≤ 0.25
12,RQLN,≤ 0.25
13,GIMN,1.64
14,HRLD,≤ 0.25
15,ETPT,≤ 0.25
16,HCRY,≤ 0.25
17,FYLW,≤ 0.25
18,DNEF,≤ 0.25
19,SCQH,1.92
20,NGMY,≤ 0.25
21,SQRI,≤ 0.25
22,DNTC,≤ 0.25
23,RQTA,≤ 0.25
24,EAQN,≤ 0.25

row,Variant,enrichment ratio
1,PDKL,≤ 0.25
2,YLTA,≤ 0.25
3,TSTY,11.6
4,GPFY,≤ 0.25
5,PQEW,1.09
6,LMSM,≤ 0.25
7,QTVK,≤ 0.25
8,PYGD,≤ 0.25
9,RGHN,≤ 0.25
10,IDPS,≤ 0.25
11,VRPG,≤ 0.25
12,AVRT,≤ 0.25
13,DWCA,≤ 0.25
14,KEIR,≤ 0.25
15,DEAP,≤ 0.25
16,SLCA,5.43
17,GHSW,≤ 0.25
18,LLHR,≤ 0.25
19,MAGA,≤ 0.25
20,AKAM,13.1
21,DFAH,≤ 0.25
22,SFTV,≤ 0.25
23,GGWW,≤ 0.25
24,QTNG,7.96

row,Variant,enrichment ratio
1,ITSN,≤ 0.25
2,IHSV,≤ 0.25
3,GTMM,5.34
4,KNQH,≤ 0.25
5,DLLH,≤ 0.25
6,QTGG,≤ 0.25
7,SMWE,≤ 0.25
8,GYYN,≤ 0.25
9,IHIW,≤ 0.25
10,SFAV,≤ 0.25
11,EGAF,≤ 0.25
12,VYKT,≤ 0.25
13,SGGQ,14.9
14,AHWE,≤ 0.25
15,FSTM,7.05
16,TQWS,10.7
17,PTCR,≤ 0.25
18,RNIY,≤ 0.25
19,RDDH,≤ 0.25
20,AIND,≤ 0.25
21,VQYF,≤ 0.25
22,IMAW,≤ 0.25
23,NWTC,≤ 0.25
24,PFEY,≤ 0.25

row,Variant,enrichment ratio
1,KYTM,≤ 0.25
2,NLQS,≤ 0.25
3,EMTN,≤ 0.25
4,EHDQ,≤ 0.25
5,TLAM,3.04
6,YAGS,≤ 0.25
7,IRPD,≤ 0.25
8,RMTL,≤ 0.25
9,FWAY,≤ 0.25
10,EPKI,≤ 0.25
11,TEYE,≤ 0.25
12,TVQC,4.14
13,VMFM,≤ 0.25
14,LRWP,≤ 0.25
15,LTFH,0.348
16,FEWD,≤ 0.25
17,FRFW,≤ 0.25
18,TCCM,20
19,RMYQ,≤ 0.25
20,FVIH,≤ 0.25
21,VQIN,≤ 0.25
22,PWGR,≤ 0.25
23,KDDH,≤ 0.25
24,FTDY,≤ 0.25

row,Variant,enrichment ratio
1,MWCR,≤ 0.25
2,WRVS,≤ 0.25
3,FMTV,≤ 0.25
4,WDCQ,≤ 0.25
5,MYVW,≤ 0.25
6,IFSN,≤ 0.25
7,NLPA,≤ 0.25
8,SSMW,≤ 0.25
9,FADD,≤ 0.25
10,KSWE,≤ 0.25
11,VFPK,≤ 0.25
12,MDHT,≤ 0.25
13,PRVH,≤ 0.25
14,SVFM,≤ 0.25
15,SNCL,14.4
16,QTST,≤ 0.25
17,PADY,≤ 0.25
18,EKPV,≤ 0.25
19,PQGS,≤ 0.25
20,FWNG,≤ 0.25
21,PFNR,≤ 0.25
22,ETVP,≤ 0.25
23,SEQR,≤ 0.25
24,SIWD,14

row,Variant,enrichment ratio
1,YMQM,≤ 0.25
2,GSQP,≤ 0.25
3,QCRL,≤ 0.25
4,HWII,≤ 0.25
5,SSRM,≤ 0.25
6,ICMY,≤ 0.25
7,IENA,≤ 0.25
8,VFPC,≤ 0.25
9,WIAC,≤ 0.25
10,RHQS,≤ 0.25
11,MRSI,≤ 0.25
12,TQEG,≤ 0.25
13,VRTE,≤ 0.25
14,YNCI,0.31
15,ECGN,≤ 0.25
16,YITH,≤ 0.25
17,GMCI,1.01
18,HSSD,≤ 0.25
